Experimental data reported in PMC9831603.
These are yes or no findings as the source states them, for the method shown. In cells and extracts the contact can be indirect. Some binding calls cover weakened binding; strength is not graded here.

Sequences of proteins named here, by UniProt entry; tags and fusion partners are left off. A change or cut given only in a name is not applied to a line headed by its entry. A line that says so, or that is headed by a name, gives the form on record, which may keep a tag or linker.
wild-type Arl3-FLAG (P36405, form named): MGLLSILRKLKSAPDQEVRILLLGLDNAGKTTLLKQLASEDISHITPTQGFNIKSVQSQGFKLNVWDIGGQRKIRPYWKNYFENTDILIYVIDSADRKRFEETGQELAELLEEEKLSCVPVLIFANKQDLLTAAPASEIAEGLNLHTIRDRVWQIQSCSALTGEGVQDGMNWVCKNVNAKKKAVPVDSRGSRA
Arl3-D129N-FLAG (P36405, form named): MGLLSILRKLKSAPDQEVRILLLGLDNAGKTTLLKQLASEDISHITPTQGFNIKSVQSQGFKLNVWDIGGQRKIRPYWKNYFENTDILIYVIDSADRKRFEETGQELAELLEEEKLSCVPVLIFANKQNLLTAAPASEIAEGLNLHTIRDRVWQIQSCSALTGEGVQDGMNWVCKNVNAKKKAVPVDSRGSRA
Arl3-T31N/Y90C-FLAG (P36405, form named): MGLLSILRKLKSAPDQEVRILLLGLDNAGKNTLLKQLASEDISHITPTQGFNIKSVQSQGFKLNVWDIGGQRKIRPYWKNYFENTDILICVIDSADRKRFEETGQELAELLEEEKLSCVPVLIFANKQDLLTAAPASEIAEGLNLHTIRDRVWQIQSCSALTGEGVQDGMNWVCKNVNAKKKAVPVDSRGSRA
Arl3-Y90C-FLAG (P36405, form named): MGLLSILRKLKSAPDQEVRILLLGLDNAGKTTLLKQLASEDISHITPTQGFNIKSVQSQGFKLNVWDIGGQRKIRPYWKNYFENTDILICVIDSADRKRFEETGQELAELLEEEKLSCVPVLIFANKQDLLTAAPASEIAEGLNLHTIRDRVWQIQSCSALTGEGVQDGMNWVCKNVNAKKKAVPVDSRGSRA
Arl3-Y90C/R149H-FLAG (P36405, form named): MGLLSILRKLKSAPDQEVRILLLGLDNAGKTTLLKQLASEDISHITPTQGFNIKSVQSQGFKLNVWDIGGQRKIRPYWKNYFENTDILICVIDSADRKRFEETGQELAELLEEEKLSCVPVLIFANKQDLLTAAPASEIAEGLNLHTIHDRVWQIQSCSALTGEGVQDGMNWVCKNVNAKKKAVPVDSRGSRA

Columns and labels:
[1] = biological target: wild-type Arl3-FLAG (human) (UniProt P36405); test: cross-linking + co-IP; in-cell DSS cross-linking and FLAG immunoprecipitation from AD-293 cells co-expressing Arl13B-GFP with Arl3-FLAG constructs (also with Arl3-T31N-myc); immunoblot
[2] = biological target: wild-type Arl3-FLAG (human) (UniProt P36405); test: condition: only with co-expressed myc-tagged Arl3-Y90C or Arl3-T31N/Y90C; cross-linking + co-IP; in-cell DSS cross-linking and FLAG immunoprecipitation from AD-293 cells co-expressing Arl13B-GFP, wild-type Arl3-FLAG and myc-tagged Arl3-Y90C or Arl3-T31N/Y90C; immunoblot
Arl3-D129N-FLAG (human) = Arl3-D129N-FLAG (human) (UniProt P36405); test: cross-linking + co-IP; AD-293 cells expressing Arl3-FLAG constructs incubated with 1 mM DSS in PBS, 37°C 10 min, quenched with Tris; FLAG immunoprecipitation; cross-linked complexes with endogenous partners (or co-expressed UNC119a-myc) seen by immunoblot (~65, ~55, ~45 kDa bands)
[3] = biological target: Arl3-T31N/Y90C-FLAG (human) (UniProt P36405); test: as above
Arl3-Y90C-FLAG (human) = Arl3-Y90C-FLAG (human) (UniProt P36405); test: as above
[4] = biological target: Arl3-Y90C/R149H-FLAG (human) (UniProt P36405); test: as above

B1: BART (endogenous) (protein, UniProt Q9Y2Y0 1-163)
chain: MDALEGESFALSFSSASDAEFDAVVGYLEDIIMDDEFQLLQRNFMDKYYLEFEDTEENKLIYTPIFNEYISLVEKYIEEQLLQRIPEFNMAAFTTTLQHHKDEVAGDIFDMLLTFTDFLAFKEMFLDYRAEKEGRGLDLSSGLVVTSLCKSSSLPASQNNLRH
B1 was tested, and the binding [1] was “binds”, the binding [2] was “no binding” and the binding (Arl3-D129N-FLAG (human)) was “binds”. For the same binder, the binding [3] was “no binding”, the binding (Arl3-Y90C-FLAG (human)) was “binds” and the binding [4] was “binds”.
